Measurements as given in article PMC4336329 (PLoS ONE, 2015).
Screen size: about 310,000 compounds; about 2,200 (0.71%) showed an effect of 50% or more. Effects have a minus sign here. The list shows a part of the results.

Biological target: human ether-à-go-go-related gene (hERG) potassium channel (human, UniProt Q12809)
Test: primary screen, population patch clamp on CHO cells stably expressing hERG

Sequence of human ether-à-go-go-related gene (hERG) potassium channel (Q12809 whole entry, looked up): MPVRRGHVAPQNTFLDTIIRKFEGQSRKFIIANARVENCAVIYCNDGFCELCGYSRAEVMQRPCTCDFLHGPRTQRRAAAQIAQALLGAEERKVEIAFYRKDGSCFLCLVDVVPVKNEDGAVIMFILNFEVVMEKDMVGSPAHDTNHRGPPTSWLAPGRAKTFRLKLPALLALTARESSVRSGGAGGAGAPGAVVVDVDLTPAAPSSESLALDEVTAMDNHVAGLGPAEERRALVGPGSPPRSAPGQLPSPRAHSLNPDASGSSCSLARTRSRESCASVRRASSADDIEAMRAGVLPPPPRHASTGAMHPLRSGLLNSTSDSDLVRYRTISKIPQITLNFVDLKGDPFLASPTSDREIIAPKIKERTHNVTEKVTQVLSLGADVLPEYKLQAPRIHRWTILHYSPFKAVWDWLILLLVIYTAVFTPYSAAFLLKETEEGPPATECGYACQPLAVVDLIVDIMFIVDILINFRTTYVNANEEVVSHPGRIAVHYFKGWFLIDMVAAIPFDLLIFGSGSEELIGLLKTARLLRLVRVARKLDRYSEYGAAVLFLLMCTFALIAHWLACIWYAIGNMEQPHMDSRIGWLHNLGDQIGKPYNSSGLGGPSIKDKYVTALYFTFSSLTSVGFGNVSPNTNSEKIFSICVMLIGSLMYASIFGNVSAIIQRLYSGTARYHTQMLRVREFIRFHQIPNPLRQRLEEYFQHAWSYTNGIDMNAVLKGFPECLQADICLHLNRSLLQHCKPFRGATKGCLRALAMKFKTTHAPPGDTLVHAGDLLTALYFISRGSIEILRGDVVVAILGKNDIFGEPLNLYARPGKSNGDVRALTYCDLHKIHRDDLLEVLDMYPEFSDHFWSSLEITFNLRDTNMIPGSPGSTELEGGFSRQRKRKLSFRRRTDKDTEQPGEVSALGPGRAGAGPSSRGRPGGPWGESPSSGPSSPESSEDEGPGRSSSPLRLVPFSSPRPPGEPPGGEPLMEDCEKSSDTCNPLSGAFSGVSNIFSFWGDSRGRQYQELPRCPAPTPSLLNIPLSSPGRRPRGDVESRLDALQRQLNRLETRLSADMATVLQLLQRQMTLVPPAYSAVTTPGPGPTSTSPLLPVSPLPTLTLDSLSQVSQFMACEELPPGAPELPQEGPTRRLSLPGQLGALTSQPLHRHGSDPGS

In order of rising “hERG current change (%, negative = inhibition) at 1uM” value:
1. COc1cc2ncc(S(=O)(=O)c3ccccc3)c(N3CCC4(CC3)OCCO4)c2cc1OC  -47.8%
2. COc1ccc(CC(C)N2CCN(c3ccccc3)CC2)cc1OC (stereo not shown)  -41.9%
3. COc1ccc(N2CCN(C(=O)c3ccccc3N(C)S(=O)(=O)c3ccccc3)CC2)cc1  -6.68%
4. COc1ccc(C)cc1-n1c(SCC(=O)NC2CC2)nc2ccccc2c1=O  -6.11%
5. C/C(CC(=O)Nc1cc(Cl)ccc1Cl)=N\NC(N)=S  -5.1%
6. O=C(CCS(=O)(=O)c1cc2c(cc1Cl)NC(=O)CO2)NCc1ccc(F)cc1  -2.42%
7. Cc1ccc(C)c(CN2C(=O)c3ccccc3S(=O)(=O)c3ccc(C(=O)N4CCN(C)CC4)cc32)c1  -1.77%
8. CC(=O)C1=C(O)C(=O)N(C)C1c1ccccc1[N+](=O)[O-] (stereo not shown)  -0.251%
9. COc1ccccc1NC(=O)CSc1nnc(Cc2cccn2C)n1CCc1ccccc1  -0.155%
10. COc1ccc(NC(=O)CS(=O)(=O)c2cccc(Cl)c2)cc1  0.836%
11. O=C(CSc1c2c(nc3cc(Cl)ccc13)CCCC2)NCCCN1CCOCC1  2.69%
12. CC(C(=O)NCc1ccccn1)N1C(=O)c2ccccc2C1=O (stereo not shown)  3.06%
13. Cc1ccc(NC(=O)NCCN2CCN(C(=O)Nc3ccc(C)cc3)CC2)cc1  3.82%
14. CC1Cc2cc(/C(O)=C3/C(=O)C(=O)N(CCN4CCOCC4)C3c3cccc(O)c3)ccc2O1 (stereo not shown)  4.37%
15. O=c1ccc(Oc2nc(N3CCCCC3)nc(N3CCCCC3)n2)n[nH]1  4.98%
16. CCOc1ccc(N2C(=O)Nc3ccccc3C2(O)C(=O)N2CCN(c3ccccn3)CC2)cc1 (stereo not shown)  5.45%
17. O=C(c1cccc(F)c1)N1CCN(c2ccc([N+](=O)[O-])c(N3CCOCC3)c2)CC1  5.64%
18. COc1ccc(O)c2c(=O)c3c(OC)cc4c(c3oc12)C1C=COC1O4 (stereo not shown)  5.98%
19. COc1ccc(C2(C(=O)Nc3ccc(C(=O)N4CCOCC4)cc3)CCOCC2)cc1  6.36%
20. CC1Sc2ccc(S(=O)(=O)NCCc3ccc(Cl)cc3)cc2NC1=O (stereo not shown)  6.63%
21. O=C(C1CCCO1)N1CCN(S(=O)(=O)c2cccc3nsnc23)CC1 (stereo not shown)  7.09%
22. CCN(CC)S(=O)(=O)c1ccc(N2CCOCC2)c(NC(=O)Cc2ccccc2F)c1  7.8%
23. CCC1=NN2C(=N)/C(=C\c3cccn3-c3ccc(Cl)cc3)C(=O)N=C2S1  7.83%
24. COc1ccc2nc(Cl)c(C#N)cc2c1  8.59%
25. O=C(COc1ccc(Cl)cc1Cl)Nc1nnc(C2=COCCO2)o1  8.81%
26. COCc1cc(C)n(CC(=O)N/N=C/c2ccc(-c3ccc(Cl)c(C(=O)O)c3)o2)c(=O)c1C#N  9.08%
27. COc1ccc(OCC(=O)Nn2c(-c3ccc(OC)cc3)nc3ccccc3c2=O)cc1  10.1%
28. Cc1occc1C(=O)Nc1nnc(C(F)(F)F)s1  10.4%
29. Cc1ccc(N=N/C(=C\O)C(=O)c2ccncc2)cc1  10.7%
30. Cc1cc2c(c(=O)n1CCN(C)C)C(c1ccncc1)C(C#N)=C(N)O2 (stereo not shown)  10.7%
31. Cc1ccccc1NC(=O)c1sc2nc3c(c(-c4ccco4)c2c1N)CCC3  11%
32. COc1ccc(N2C(=O)CC(Nc3ccc(C(=O)O)cc3)C2=O)cc1OC (stereo not shown)  11.6%
33. C=C1C(=O)O[C@@H]2[C@H]3O[C@]3(C)CC/C=C(\C)CC[C@@H]12  11.9%
34. COc1cccc(NC(=O)CN(C)C(=O)CSCC(=O)Nc2ccc(C)cc2)c1  12.4%
35. NS(=O)(=O)c1ccc(NC(=O)Nc2ccc3c(c2)OCO3)cc1  12.5%
36. Cc1ccnc(NC(=O)CNC(=O)c2ccccc2Br)c1  12.8%
37. O=C1CN(C(=O)COC(=O)c2cccc(Br)c2)c2ccccc2N1  13.5%
38. Cc1ccccc1C1c2[nH]c3ccccc3c2C[C@H]2C(=O)N(c3ccccc3C(=O)NCCN3CCOCC3)C(=O)N12 (stereo partly shown)  14.1%
39. CCCC(=O)Nc1nnc(S(=O)(=O)N2CCCCCC2)s1  14.6%
40. CCN1C(=O)/C(=c2\s/c(=C3\Sc4ccccc4N3C)c(=O)n2C)N(C)C1=S  14.8%
41. O=P(CCCO)(Cc1ccccc1)Cc1ccccc1  15.3%
42. CCCn1nnnc1SCC(=O)N1CCCc2ccccc21  16.9%
43. CC1(C)NC(C)(C)/C(=C\c2cccs2)C(=O)C1=O  17.3%
